Test results as given in PubChem BioAssay AID602179 (National Center for Advancing Translational Sciences (NCATS), 2012).
In all, about 390,000 compounds went through this assay and about 360 (0.092%) were called active. Inconclusive results, whose numbers are uncertain, are shown with a selection of clear calls. Calls follow the shape of the dose curve; as a rule, active = well fitted inhibition curve with a large enough effect; inconclusive = small, poorly fitted or top-dose-only effect; inactive = no such curve, though single readings can be large or run the other way. Potencies beside an inconclusive call are fits to weak or partial responses and may not hold up.

These compounds were tested against Isocitrate dehydrogenase [NADP] cytoplasmic (Homo sapiens) (UniProt O75874) (assay: qHTS for Inhibitors of mutant isocitrate dehydrogenase 1 (IDH1): qHTS). Conditions: IDH1-R132H enzyme, NADPH consumption, diaphorase/resazurin fluorescence; series mostly up to 76.6 µM.
Summary of the method: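 IDH1-R132H (0.5 ug/mL dispensed) in pH 7.5 Tris buffer was preincubated 30 min with compound, then given a substrate mix of 0.016 mM NADPH and 2 mM alpha-KG for 80 min at room temperature; remaining NADPH was read by diaphorase/resazurin fluorescence.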
Also: nearly all actives have a fitted effect of over 65% in size.
Potency is read from the fitted curve at half-maximal effect; tags tell the direction and shape of the fitted curve.

Row | Structure (SMILES) | Potency
1 | Cc1ccc2nc(-c3ccccc3)cc(C(=O)NNC(=O)c3csc(N4CCOCC4)n3)c2c1 | inactive
2 | CCN(C(=O)c1cccs1)c1nc(-c2ccc(OC)cc2)cs1 | inactive
3 | O=C(COc1ccccc1Br)Nc1ccc(S(=O)(=O)N2CCCC2)cc1 | inactive
4 | O=C(CCC1CCCC1)N1CCN(C(=O)c2ccco2)CC1 | inactive
5 | COC(=O)[C@@]12CCCCN1[C@H](c1ccc(-c3ccc(OC)cc3)c(OC)c1)[C@@H]1C(=O)N(C)C(=O)[C@@H]12 | active: 35.5 µM
6 | COc1cc(CN2CCc3ccccc3C2)cc([N+](=O)[O-])c1O | inactive
7 | Nc1c(C(=O)NCCc2ccccc2)nnn1CC(=O)Nc1ccc(Cl)cc1 | inactive
8 | O=C1/C(=C\c2ccc(Cl)c(Cl)c2)CN(C(=O)CCN2CCOCC2)C/C1=C/c1ccc(Cl)c(Cl)c1 | inconclusive: 46.5 µM [inhibitor, partial curve]
9 | CCOC(=O)C1CCCN(c2c(C(=O)c3ccc(C)cc3)cnc3ccc(OCC)cc23)C1 (stereo unspecified) | inconclusive: 44.7 µM [inhibitor, partial curve, poor fit]
10 | COc1cc(/C=C2\SC(=S)N(NC(=O)c3ccccc3OC)C2=O)ccc1O | inconclusive: 29.3 µM [inhibitor, partial curve, poor fit]
11 | N#CC(C#N)=C1C(=O)N(CCN2CCOCC2)c2ccccc21 | inconclusive: 52.1 µM [inhibitor, partial curve]
12 | O=C(NC1CCCC1)C(c1ccncc1)N(C(=O)Cc1cccs1)c1ccccc1 (stereo unspecified) | inconclusive: 26.1 µM [inhibitor, full curve]
13 | CCOC(=O)c1cc2c(=O)n3ccccc3nc2n(CC2CCCO2)c1=NC(=O)c1cccc(C)c1 (stereo unspecified) | inconclusive: 50.1 µM [inhibitor, single point]
14 | COc1ccc(-c2c(-c3ccsc3)oc(=O)c3cc(OC)c(OC)cc23)cc1 | active: 11.2 µM
15 | COc1cccc(C2c3c(-c4cc(Cl)c(C)cc4O)n[nH]c3C(=O)N2Cc2cccnc2)c1 (stereo unspecified) | inconclusive: 46.5 µM [inhibitor, partial curve]
16 | COc1cc(C(=O)Nc2cc3c(cc2N2CCCCC2)n(C)c(=O)n3C)cc(OC)c1OC | inconclusive: 36.9 µM [inhibitor, partial curve]
17 | COC(=O)[C@H](Cc1ccccc1)NC(=O)NCc1cccs1 | inactive
18 | O=[N+]([O-])/C=C/c1cn(Cc2ccccc2)c2ccccc12 | inconclusive: 58.5 µM [inhibitor, single point]
19 | Cc1nn2c(N3CCCC3)c3c(nc2c1-c1ccccc1)CCC3 | inconclusive: 46.5 µM [inhibitor, partial curve]
20 | COc1ccc(N(C(=O)c2ccco2)C(C(=O)NC2CCCC2)c2ccccc2)cc1 (stereo unspecified) | inconclusive: 32.9 µM [inhibitor, partial curve, poor fit]
21 | O=C1c2cccc3cccc(c23)C(=O)N1CCN1CCN(C(=S)Nc2ccccc2)CC1 | inactive

Row | Structure (SMILES) | Potency
22 | CC(C)c1ccc(C2CC(=O)Nc3cc4c(cc32)OCCO4)cc1 (stereo unspecified) | inconclusive: 44.7 µM [inhibitor, partial curve, poor fit]
23 | Cc1cccc(-c2nc(SCc3cc(=O)c4c(C)cc(C)cc4[nH]3)n[nH]2)c1 | inconclusive: 50.1 µM [inhibitor, single point]
24 | Clc1ccc(C2=Nn3c(nnc3-c3n[nH]c4c3CCC4)SC2)cc1Cl | inconclusive: 29.3 µM [inhibitor, partial curve]
25 | Cc1ccc2nc(-c3ccccn3)c(Nc3ccccc3C)n2c1 | inconclusive: 50.1 µM [inhibitor, single point]
26 | C[C@@H]1CN([C@@H](C)CO)S(=O)(=O)c2ccc(Br)cc2O[C@H]1CN(C)C(=O)Nc1ccc(C(F)(F)F)cc1 | inconclusive: 50.1 µM [inhibitor, single point]
27 | FC(F)(F)c1cccc(Nc2c3c(nc4ccc(Cl)cc24)CCC3)c1 | inconclusive: 28.2 µM [inhibitor, full curve]
28 | COc1ccc(C2=NN(C(=O)c3ccncc3)C(c3ccccc3O)C2)cc1 (stereo unspecified) | inconclusive: 50.1 µM [inhibitor, single point]
29 | Cc1ccccc1/C=C/C(=O)c1ccc([N+](=O)[O-])o1 | inconclusive: 8.91 µM [inhibitor, full curve]
30 | O=c1[nH]c2ccc(Br)cc2c(-c2ccccc2)c1N1CCOCC1 | inconclusive: 50.1 µM [inhibitor, single point]
31 | CC(C)c1ccc(Nc2c(-c3ccccn3)nc3ccccn23)cc1 | inconclusive: 50.1 µM [inhibitor, single point]
32 | COc1ccc(C(=O)NC2CC(C)(C)NC(C)(C)C2)cc1OC | inconclusive: 50.1 µM [inhibitor, single point]
33 | CN(C)CCCCCCCCCCC(=O)/C=N/O | inactive
34 | Cc1onc(-c2ccccc2)c1C(=O)Nc1ncc([N+](=O)[O-])s1 | inactive
35 | COc1ccc(NC(=O)Nc2ccc3c(c2)N(C)C(=O)CS3)cc1Cl | inactive
36 | CC(=O)NS(=O)(=O)c1ccc(N=c2ssc3c2-c2cc(C)ccc2NC3(C)C)cc1 | inconclusive: 52.1 µM [inhibitor, partial curve]
37 | Cc1ccc(C(C(=O)NC2CCCC2)N(C(=O)Cc2cccs2)c2ccc3c(c2)OCCO3)cc1 (stereo unspecified) | inconclusive: 10.4 µM [inhibitor, partial curve, poor fit]
38 | Cc1ccc(NC(=O)CN2C(=O)COc3ccc(S(=O)(=O)N4CCCCCC4)cc32)cc1Cl | inconclusive: 14.1 µM [inhibitor, single point]
39 | O=C(NCCc1ccccc1)c1ccc2nc(N3CCCCC3)sc2c1 | inconclusive: 50.1 µM [inhibitor, single point]
40 | O=C(NC1CCCCC1)C(c1ccco1)N(Cc1cccs1)C(=O)Cn1nnc2ccccc21 (stereo unspecified) | inconclusive: 11.7 µM [inhibitor, full curve]
41 | CCOC(=O)C1=C(C)NC(=S)N(C(C)=O)C1c1ccc(Cl)cc1 (stereo unspecified) | inconclusive: 36.9 µM [inhibitor, partial curve]
